The supplement of paper PMC9151546
Most values come without repeats; read them as rough.

What was measured:
[1] = test system: CHO-K1; assay: hypodiploid nuclei frequency (% of nucleated events); higher = more hypodiploid events (aneugenic)
Method: (§1)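 Flow-cytometric in vitro micronucleus assay (Litron MicroFlow) in CHO-K1 cells in 96-well plates, 19 concentrations (4.5-200 µM, n=1 per concentration). Without S9, cells were exposed for 24 h and sampled at 48 h. With Aroclor 1254-induced rat liver S9, cells were exposed for 3-4 h and sampled at 27-28 h. Read-outs are %MN and %hypodiploid nuclei relative to nucleated events, and relative survival as the nuclei-to-bead ratio versus the 1% DMSO vehicle control (x100).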

[2] = test system: CHO-K1; assay: micronucleus frequency (% of nucleated events); higher = more micronuclei (genotoxic)
[3] = test system: CHO-K1; assay: relative survival (nuclei to bead ratio vs DMSO control) (% of vehicle control); higher = more surviving cells
Method: as §1
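For hypodiploid nuclei frequency (% of nucleated events) in this document: hypodiploid nuclei gated on a flow cytometer with 488 nm excitation after SYTOX Green staining, cultures at 37 °C, positive controls vinblastine without S9 and cyclophosphamide with S9.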
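For micronucleus frequency (% of nucleated events) in this document: cells lysed with nuclei stained by SYTOX Green, then micronucleus-gated events counted against nucleated events by flow cytometry with 488 nm excitation.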
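For relative survival (nuclei to bead ratio vs DMSO control) in this document: Lysed-cell nuclei stained with SYTOX Green and counted against counting beads by flow cytometry at 488 nm excitation, with vinblastine (no S9) and cyclophosphamide (plus S9) as positive controls.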

CC(N)=O [Acetamide]
Settings | hypodiploid nuclei frequency, [1] [%] | micronucleus frequency, [2] [%] | relative survival, [3]
concentration: 0.446 (µM), S9 metabolic activation: with S9, exposure time: 3-4 hours | 0.52 | 1.42 | 98.5
concentration: 0.446 (µM), S9 metabolic activation: without S9, exposure time: 24 hours | 3.58 | 1.7 | 114
concentration: 0.557 (µM), S9 metabolic activation: with S9, exposure time: 3-4 hours | 0.4 | 1.08 | 124
concentration: 0.557 (µM), S9 metabolic activation: without S9, exposure time: 24 hours | 1.22 | 1.18 | 129
concentration: 0.697 (µM), S9 metabolic activation: with S9, exposure time: 3-4 hours | 0.32 | 0.92 | 106
concentration: 0.697 (µM), S9 metabolic activation: without S9, exposure time: 24 hours | 1.06 | 0.88 | 120
concentration: 0.871 (µM), S9 metabolic activation: with S9, exposure time: 3-4 hours | 0.26 | 0.88 | 119
concentration: 0.871 (µM), S9 metabolic activation: without S9, exposure time: 24 hours | 0.66 | 1.06 | 126
concentration: 1.09 (µM), S9 metabolic activation: with S9, exposure time: 3-4 hours | 0.36 | 0.96 | 123
concentration: 1.09 (µM), S9 metabolic activation: without S9, exposure time: 24 hours | 0.54 | 1.26 | 120
concentration: 1.36 (µM), S9 metabolic activation: with S9, exposure time: 3-4 hours | 0.42 | 1.2 | 128
concentration: 1.36 (µM), S9 metabolic activation: without S9, exposure time: 24 hours | 0.98 | 1.22 | 134
concentration: 1.7 (µM), S9 metabolic activation: with S9, exposure time: 3-4 hours | 0.28 | 0.82 | 121
concentration: 1.7 (µM), S9 metabolic activation: without S9, exposure time: 24 hours | 0.74 | 1.86 | 133
concentration: 2.13 (µM), S9 metabolic activation: with S9, exposure time: 3-4 hours | 0.46 | 1.2 | 120
concentration: 2.13 (µM), S9 metabolic activation: without S9, exposure time: 24 hours | 0.84 | 1.2 | 136
concentration: 2.66 (µM), S9 metabolic activation: with S9, exposure time: 3-4 hours | 0.38 | 1.12 | 111
concentration: 2.66 (µM), S9 metabolic activation: without S9, exposure time: 24 hours | 5.48 | 1.24 | 118
concentration: 3.32 (µM), S9 metabolic activation: with S9, exposure time: 3-4 hours | 0.26 | 1.18 | 109
concentration: 3.32 (µM), S9 metabolic activation: without S9, exposure time: 24 hours | 16.5 | 2.2 | 90.9
concentration: 4.15 (µM), S9 metabolic activation: with S9, exposure time: 3-4 hours | 0.28 | 1.38 | 122
concentration: 4.15 (µM), S9 metabolic activation: without S9, exposure time: 24 hours | 1.68 | 1.42 | 118
concentration: 5.19 (µM), S9 metabolic activation: with S9, exposure time: 3-4 hours | 0.28 | 0.96 | 112
concentration: 5.19 (µM), S9 metabolic activation: without S9, exposure time: 24 hours | 1.46 | 1.4 | 118
concentration: 6.49 (µM), S9 metabolic activation: with S9, exposure time: 3-4 hours | 0.28 | 1.08 | 101
concentration: 6.49 (µM), S9 metabolic activation: without S9, exposure time: 24 hours | 1.46 | 1.28 | 138
concentration: 8.11 (µM), S9 metabolic activation: with S9, exposure time: 3-4 hours | 0.32 | 0.82 | 100
concentration: 8.11 (µM), S9 metabolic activation: without S9, exposure time: 24 hours | 1.48 | 1.8 | 135
concentration: 10.1 (µM), S9 metabolic activation: with S9, exposure time: 3-4 hours | 0.24 | 1.52 | 104
concentration: 10.1 (µM), S9 metabolic activation: without S9, exposure time: 24 hours | 1.06 | 2.22 | 124
concentration: 12.7 (µM), S9 metabolic activation: with S9, exposure time: 3-4 hours | 0.26 | 1.06 | 104
concentration: 12.7 (µM), S9 metabolic activation: without S9, exposure time: 24 hours | 1.16 | 1.68 | 135
concentration: 15.8 (µM), S9 metabolic activation: with S9, exposure time: 3-4 hours | 0.18 | 1.3 | 117
concentration: 15.8 (µM), S9 metabolic activation: without S9, exposure time: 24 hours | 1.62 | 1.76 | 130
concentration: 19.8 (µM), S9 metabolic activation: with S9, exposure time: 3-4 hours | 0.28 | 1.26 | 113
concentration: 19.8 (µM), S9 metabolic activation: without S9, exposure time: 24 hours | 1.82 | 2.36 | 105
